Results reported in the supplement of paper PMC11417369.
The other results are listed elsewhere or left out.

Test system: PfHDP1 homeodomain (GST-tagged)
Experiment: gcPBM binding intensity (ln(normalized median fluorescence intensity)); higher = stronger DNA binding
Summary of the method: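 GST-tagged P. falciparum DNA-binding domains produced in E. coli were incubated for 1 h on an Agilent 4 × 180k array of primer-extended double-stranded 36-bp intergenic genomic probes with negative controls. Binding intensity is the highest Masliner-normalised natural-log median intensity across replicate spots of either probe orientation, with bound protein detected by Alexa488 anti-GST antibody at 488 nm.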

Sequence	gcPBM binding intensity (ln)
AATAAAAATTCAAGTTGTACTTTTTTAAAAATACAA [XGTACX_site3949]	6.23
AATTTTTGTTACAAGATGCACTTAATTTTTCTAAAT	7.92
AATAATATATATATTACACACTAATTGTATTATATA [CACACA_site448]	6.5
CCAACATGCAGACGCACACACAAAAAAAGCATGCAT [CACACA_site74]	6.79
TTAATACCCGGACACACACACACAAAATAAAATACA [CACACA_site4296]	6.89
ATTTATTTATTTAGCTGTACATTTATACAGAACGAT [XGTACX_site3336]	6.3
TAACAATATCTAGATACACACACATATCTCTCAATC [CACACA_site8122]	6.7
AAAATGAATAAAAATACACACATATATGTTATTCTC [CACACA_site2671]	6.44
TGATTCATTGATAAGGGTACATTTATAATTATGATA [XGTACX_site6319]	6.02
ACGTATCAATTTATTGGTACACATAAATATATATAT [XGTACX_site5556]	8.13
ACATTGAACAAAATAGTAAGCACATATATATATATA [GTGCAC_negctrl_site679]	9.2
AAACATATATTAAGCACACACAAACAAAAAAACAAA [CACACA_site2549]	7.2
TTTTCATACACTGCTAGTATATACTACCACTGACAT [GTGCAC_negctrl_site514]	7.49
ACACATAATATAAAGGTGCTATATTGTATTCATTTT [GTGCAC_site9457]	6.52
ATATATTATATAAAAAGTACTAAAATAGTAAGATGT [XGTACX_site7493]	7.23
TATTCATTAAACCATACACACATAATTTTTTTATAA [CACACA_site4618]	6.56
GTGTGCCAAATTAGCACACACATATATACATGAATT [CACACA_site7346]	7.57
AATGATTTTAAATGAACATAATTTATATTCATAACA [GTGCAC_negctrl_site256]	6.13
ATCATTTTGTGTTCAAGTACATAATGTTTTACACAA [XGTACX_site3565]	6.32

Sequence	gcPBM binding intensity (ln)
AACGAAGCATAAAATGTTATGTATATATATAAATAT [TGCATGCA_negctrl_site304]	6.47
TACCAAAAAAAAAAAATAATAATAAAAAAAAAAAAA [TGCATGCA_negctrl_site11]	6.07
GCAAAACATTTTTAAAATAAAAATAATAAAATATAT [CACACA_negctrl_site219]	6.37
CATACATTATAAGATACATGCATATATCTGAACATA [TGCATGCA_site797]	6.49
ATGTGGAAATAGAGCACACATATATATAATATATAT [CACACA_site884]	6.9
AAAAAATATAAATATGTAAAAAGAGAAAAAAAAAAG [GTGCAC_negctrl_site9]	6.51
TGAAAATGGGAACCGTGTACAGGGCAGTTATAGGGG [XGTACX_site2950]	7.09
ATATTTAATTCATCATGTACACAAATAAGAAACAAA [XGTACX_site8076]	7.15
TATAAACATAAAACCAGTACATATATATTTTTCTTC [XGTACX_site212]	6.21
TTATGAAAATATTTTTTTCGTTTGATGTATATGTTT [CACACA_negctrl_site1556]	6.22
TGTTTGAATATAATCACACATTTATATAAAAAGTTA [CACACA_site5237]	6.04
TCTTTTTGCATGTGTGTGCGCACAAAATACACAAAA [GTGCAC_site9718]	9.9
TTGTTATGTTTTATTTGTACGTAGGTTTCTATCAAA [XGTACX_site7636]	6.93
AAATTGAAATATTCCTGTACACATTTTGAAAACTTA [XGTACX_site6101]	6.46
AAAATATAGTAACACATACACACATATATATTTATA [CACACA_site2504]	6.74
TATTAAACTAAATGTAGTACATACACAAAAGAAACC [XGTACX_site606]	7.52
AACAATAAAAATAATTGTACAAGTCTAAAAAAAATT [XGTACX_site20]	6.28
ATAAAGAAAAATAGAAGTACATATATGCATGTTAAT [XGTACX_site4480]	6.78
ATAACAAAATAATAATGTACGTATAAATATAATTTA [XGTACX_site6049]	6.62

Sequence	gcPBM binding intensity (ln)
TATATCATCATGTATGTACACACATACATATATTAT [CACACA_site8387]	6.62
TACGTATTATAAATATGTACATATAATATGTATATA [XGTACX_site468]	6.31
CAAAAACATACCTACACACACAATATGTATATATAA [CACACA_site3514]	6.49
TAACAATAACTTTATACACACATAATATAAATATAT [CACACA_site7635]	6.57
TAAAATTTTAACAAAAAAAAAAAAAAAAAAAGAAAA [CACACA_negctrl_site1335]	5.92
TAAAAAATTAAGCAACGTACAAATGAAAAGTATAAT [XGTACX_site1058]	7.2
TGATAACCAAAAAGGGGTACATACACAAAAAAATAC [XGTACX_site1254]	7.31
TACTTATTAGACTATTGTACATACATTATTAATATT [XGTACX_site7849]	6.78
AACAACATTTGATAAACACACAGAAGTATAAATATA [CACACA_site5327]	6.57
ATATTTTTTTTTTTTTGTACATATATCATTATATAT [XGTACX_site866]	6.47
TTTTTGTCTGCATACGCACACACGTGTACCATCTTA [CACACA_site1173]	7.71
TGGTTACTGTCATTAGTTATTTCTTGTTGACAATTA [CACACA_negctrl_site416]	6.5
CCGTTGAACATATATGCACACACATAAAATAAAAAA [CACACA_site8761]	10
TTTGTTGACGGACACACACACATACAGATATATATA [CACACA_site5292]	6.97
ATGGTTAAAAAAAGCATACACACTATCCTCTTTGCT [CACACA_site2552]	6.39
ATAATAAATTATTATGTACACACATAATAGTATATA [CACACA_site8538]	6.59
AATATTTATATTTACACACACATAATACCTATATGT [CACACA_site6167]	6.57
TAGATACATAAAAGTGGTACATATATATATATATAT [XGTACX_site6263]	9.28
